The source gives no read counts; variants with many changes may rest on few reads.
B1: LINE1-mini (parent)
chain: GGCAGAGCUCAACACAGCGUGGCAAAGUGGCUGUGGCUAGACUGCC

Variants of: B1
Assay: self-cleavage, relative activity (ratio to wild type); higher = more cleavage; in vitro, sequencing; the parent is a self-cleaving ribozyme

Variant	self-cleavage
A6U A24G G36U C37U	0.01
A12U A26C C31G A39U	0.03
A6U G7U G21U C42A	0.29
C10G A16C G27C C42A	0.01
A4G C10U C13U	0.12
G2A C13A G29U G36A G44C	2.26
C10U C13A G22C	0.04
U9C A26C A41G C42U	0.02
U32G G40U U43C	0.08
C3U A12C G29U G30C C31G G36U	0.1
G5U G7U G17A G29A	0.09
A11U C18G A25C C31U A39C G40C	0
G22U U43A C45U	0.05
A6G C10G G29A A39U	0.06
G2C C18U C42A	0.18
G2C A12G G17U U28G	0.02
G1C C10U G40C C42G	0
A4U G33A C45U	0.18
G7A C10A G33U C45A	0.01
A6G C15G U34A	0.03
C18U G19C C37G C45U	0.02
A4G G27C G35A	0.04
A6C A12G G21A	0.05
G17U G19C U28G U43A C45G	0.02

Variant	self-cleavage
A4U A6C G7A G17U	0.05
G17A C23A C37U	0.05
C3G C15U U28C C42U	0.28
G7A U9G A24U G30U C46A	0.12
C3A U9G A41G	0.18
G5A C10U A12G C18A A25C G35U A39U	0.03
A11G C23G G29A C46A	0.04
G1C G17A C45G	0.03
G17C U28G G33C G35C G36U	0.01
G5C C10G C13U G30U	0.03
A16C A24U C45G	0.02
U20G A25G A39G	0.11
G5U G7A C8A C23G G27U U34G	0.07
C3U A12G G19A U28C G29A	0.02
C3A G7C G17U G22U A39G	0.1
A6U A14U G36A	0.27
C3U A6U A11C C18U G19A G30A	0.01
A14U A25C C31A	0.02
A11U A16U C42U	0.04
G2A C10U G30C U38C G40C U43A	0.04
G2U C8U A39G	0.05
G5U C42U C46G	0.05
A12U G17U A26U U28C	0.06
G5A G22A G29C	0.11

Variant	self-cleavage
C15U U20A G35U	0.07
A6U C8G A14G A26G U34A G35C	0.03
A6C A11U C46G	0.11
G19U G22U C31A	0.31
G22A A25U U32A G35C U38G	0.01
G1A C18U A41G C46U	0.01
G2U A11C G21A A24U G35C C45U	0
U9A G36A C37A U38A C45U C46U	0.56
C3U G5U A26G C42G	0.03
A11U A14U A39C U43A C46U	0.02
A14G C15A G36U	0.01
A4G C15A C37U	0.17
G27C G29A G33C C37A	0.04
C3A G33A U38C A41G	0.08
C3U G36C G40U C46A	0.31
G5U G7U U9A	0.31
G33U U34C G36U C42G	0.01
C15A A25U U32A A39C	0.04
G5U C18A U34G	0.06
G1U C18G U43A	0.02
G1A C18G U28G C46A	1.83
A12G G29U C31A C37G G40C	0.01
G2U A6U G44U	0.1
C23U C31A U34A G35U	0.02

Variant	self-cleavage
A4U C8A U34A	0.04
A6C G22A C37A G40U	0.06
A11G C18U A26C U43C	0.03
C15U G27C C31U	0.02
C13A G21A C31U G36C	0.03
A16G U28C U32A	0.03
C13A G29U C31A U38G	0.19
C13G A14U C37G C45G C46G	0.05
A24C G27U U43G C45U	0.24
A6C G22C G35U G36C G40A	0.02
G1A C10A G30A G35A C45U	0.17
U20A G27U G30A	0.81
G2A C8G A11U G27U	0.02
C13U A16C G17A U38G	0.01
G1U C8G A14G	0.01
G1U G33C C37A U38A	0
C13U G21U G22C	0.35
G2U A11U A26G	0.01
U9A C18A G21A	0.1
G7A G30U U38G G44A	0.1
A4U C10G A39C	0.03
C10G G22A G40C	0.01
C15A A26U G27U	0.02
G2U G22U U32G G33U C37G	0.09

Variant	self-cleavage
C3U U34G A39U	0.07
G2U G19A C23U A24U G29C C31G	0.03
G1U A11U A12C A14C G22A C23A G40A	0.01
A4C C8U C13G G33U A39G	0.05
G19C G27U A39C	0.04
G2U A16G C18A	0
G1C A39G G44A	0.01
G19U U28C C37U	0.02
C10G G22C C46G	0.01
G2U A26C C31U C37A	0.03
G1C G7U C46A	0.02
C15U G29U C37A	0.06
G2A C10U G19C G36U	0.05
A6C U9G A26G U28G G29A	0.06
C3U A16U C37A	0.14
A6C G7C A14C A25C U28G C37A	0.01
C15U G29U U32A	0.06
G2U C13U G27U	0.07
G17C G22A G36U	0.05
C10G A16U G22A G27U U34A	0.02
C10A U20A C31G G40A	0.03
A12G U32C G36U U38C A39G	1.72
A25G G35A C45G	0.06
C3U U9G A25C U34C C46G	0.16

Variant	self-cleavage
A4C U20G U32A	0.05
G1C G5C C8G A26G A39G C46U	0.12
C3A G22A A24C	0.28
C10A A14U G33U U38C	0
A4C U20G U34A	0.03
A12C U20G G35U G44C	0.01
G5U C13A G29U U32G G35U	0.08
G2A G5U G22C	0.08
C13A G21U A26C	0.2
C8U C18A G19A G27A G35U	0.61
C3G C13A U28C G29C C42A	0.13
C23U G30U A41C	0.04
G27U U28A G30A	1.83
A4U G7U G27U	2.56
C3G C13U G35A	0.21
G2A A4G U32G	0.23
A16U G17C G21C	0.04
G7U C37A C42U C45G	0.03
G5U C15U G19U C23G G35A	0.03
C3A C8A U43C	0.2
U38A A39U U43A	0.01
A6U A11U C15G A39U	0
G5U C10A G44U	0.01
G5C C15G G22U	0.02

Variant	self-cleavage
A6G C10A A25C	0.02
C3A C23U G29C U38A	0.02
G19A U38C G40C C46A	0.02
G5A C18A C31G	0.03
A11G G19A G33U	0.04
G7U U9C A26U G33C	0.02
A12G C18A U38A	0.04
G21U A25U A41U C42G G44C	0.05
G7U A14C U20C A24C G27A	0.04
A4U G7U G40A G44U	0.19
G7C U9G C23A G30C C31U C45A	0.02
C3A U28A G33A	0.06
A4G G5A C31G U34A A39C	0.03
G7U U34G C37U A41C U43A	0.02
G5C C13U A25G G36A	0.07
G27U G30U U32G U38C	0.01
U9G G19U G21A C45A	0.25
U9C G29U C37A G40U C45A	0.02
G5C G29U C45U C46U	0.14
G5C U9C C10U C31U A39U	0.04
A4G C8U A14C G21U G22C U32G G40U	0.05
G2U G21C G36U A41G	0.03
G22U G33C A39U	0.04

Reference: the RNAGym collection of RNA variant scans (doi:10.7554/elife.90254)
